Laboratory results: the supplement of paper PMC4166925
± gives the standard deviation of the averaged measurements. In all, about 33,000 sequences were measured (“E-score (dimensionless, -0.5 to 0.5)”: median about -0.049, highest 2% from about 0.37 on). The list shows a part of the results.

system: T1, PmTbr T-box DNA-binding domain (GST fusion); experiment: PBM E-score of 8-mer (E-score (dimensionless, -0.5 to 0.5)); Tbr is Tbrain of the sea star Patiria miniata (Pm) or the sea urchin Strongylocentrotus purpuratus (Sp); higher = stronger binding preference; most listed sequences are background and not binding sites; conditions: the construct has about 5 more residues each side
T1 sequence: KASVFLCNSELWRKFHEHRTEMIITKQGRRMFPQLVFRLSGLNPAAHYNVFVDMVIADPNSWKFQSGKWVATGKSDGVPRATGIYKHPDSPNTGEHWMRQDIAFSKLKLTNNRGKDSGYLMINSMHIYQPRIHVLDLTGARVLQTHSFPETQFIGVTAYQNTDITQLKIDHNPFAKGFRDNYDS
Experimental: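 Universal protein-binding microarray (Agilent AMADID 016060, 60-bp probes with a 35-bp variable region) incubated with 200 nM GST-fused Patiria miniata Tbr T-box DNA-binding domain (residues 272-466) in PBS pH 7.5. Scored for every ungapped 8-mer (given with its reverse complement) by the Universal PBM Analysis Suite as E-score (modified Wilcoxon-Mann-Whitney enrichment, range -0.5 to 0.5; >0.45 counts as bound) and Z-score of median probe intensity. Two replicate arrays (datasets 1 and 2).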
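Note: 200 nM protein in PBS on universal arrays averaged over duplicate arrays.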

Row | Sequence | PBM E-score of 8-mer
1 | CTACAAGA | -0.175 ± 0.032
2 | CGTCTGTC | -0.0173 ± 0.047
3 | AATACTCG | -0.0236 ± 0.098
4 | GACATGAA | 0.127 ± 0.07
5 | CGCTTTCA | 0.0848 ± 0.014
6 | CGCGCACG | 0.132 ± 0.017
7 | CAGCTCCG | 0.0604 ± 0.0069
8 | CTCTAACC | -0.103 ± 0.089
9 | CTTCTAAC | 0.0384 ± 0.091
10 | AACTATAA | -0.203 ± 0.11
11 | TAAGCCTA | -0.159 ± 0.044
12 | CATGTAGC | -0.0571 ± 0.074
13 | AAGCGTGC | 0.11 ± 0.036
14 | TCTTTGCA | 0.137 ± 0.043
15 | ATGACCCG | -0.146 ± 0.068
16 | GCATACGA | -0.109 ± 0.041
17 | CCGCAGAA | -0.267 ± 0.0057
18 | CGTTTTCC | -0.202 ± 0.03
19 | CTCAGGTC | -0.21 ± 0.05
20 | CATGACCC | -0.29 ± 0.034
21 | GCCACCAC | 0.122 ± 0.08
22 | CTCAACCC | -0.17 ± 0.071

Row | Sequence | PBM E-score of 8-mer
23 | CACTTGCC | 0.327 ± 0.027
24 | ATTTATGG | -0.0215 ± 0.03
25 | CTGCCTAA | -0.11 ± 0.074
26 | GGAACAGA | -0.0553 ± 0.052
27 | GGCGATGA | 0.117 ± 0.0038
28 | CGGCCAGC | -0.127 ± 0.033
29 | AGAGCTCT | -0.224 ± 0.07
30 | AGCCCGAG | -0.255 ± 0.066
31 | ACCAGCAC | 0.146 ± 0.06
32 | CCAAGCCG | -0.3061 ± 0.00071
33 | ATCGTCTA | -0.095 ± 0.0027
34 | CGACGTGC | 0.245 ± 0.019
35 | CGAACTTA | 0.125 ± 0.02
36 | CCTCGAAA | -0.0356 ± 0.1
37 | AAGGAGTA | -0.268 ± 0.019
38 | AATTGTCG | 0.207 ± 0.018
39 | TATGGCCA | -0.244 ± 0.0028
40 | AGTCGACA | 0.253 ± 0.013
41 | CTTAACTC | -0.0873 ± 0.031
42 | AAGGTATA | -0.247 ± 0.074
43 | ATCCGCGA | 0.128 ± 0.023
44 | TAAGCGCA | 0.0205 ± 0.088

Row | Sequence | PBM E-score of 8-mer
45 | ACCAATGG | -0.0861 ± 0.043
46 | CACCCACC | 0.251 ± 0.054
47 | CCCCAGAA | -0.214 ± 0.054
48 | GGCATACA | -0.206 ± 0.025
49 | CCCAGAGC | -0.0443 ± 0.14
50 | ACAGTCAC | 0.243 ± 0.0064
51 | TAAGTTGA | -0.0353 ± 0.066
52 | ACTTCCCT | 0.00556 ± 0.045
53 | CAGGCGTA | -0.0498 ± 0.043
54 | GAGTGCCC | -0.0778 ± 0.084
55 | GGTTCACA | 0.372 ± 0.0038
56 | AGATTGAT | -0.208 ± 0.078
57 | GCATAGTA | -0.202 ± 0.024
58 | AAGACGTG | 0.169 ± 0.015
59 | CATGTTGA | 0.1289 ± 0.00047
60 | GCCGTCTA | -0.288 ± 0.021
61 | ATCTGTCG | 0.243 ± 0.022
62 | CCATGCTA | -0.0624 ± 0.055
63 | ATCCCTTA | -0.173 ± 0.026
64 | TCTTCAAA | -0.113 ± 0.02
65 | GCCTACCA | 0.015 ± 0.093
66 | ATAATGAG | -0.171 ± 0.043

Row | Sequence | PBM E-score of 8-mer
67 | CACACCTG | 0.478 ± 0.0049
68 | AGGCACGG | -0.0977 ± 0.04
69 | CTCAGTTC | -0.00404 ± 0.012
70 | AAACTGAT | -0.0131 ± 0.079
71 | AAGTCTTA | -0.119 ± 0.083
72 | GTAACAAC | 0.1282 ± 0.00081
73 | GGCGTGCA | -0.00275 ± 0.035
74 | GCTAACAA | 0.252 ± 0.013
75 | CTAACAAA | 0.214 ± 0.0057
76 | TACACACA | 0.0579 ± 0.077
77 | GTGCATGA | -0.224 ± 0.014
78 | ACCATAGA | -0.1005 ± 0.00049
79 | CGTCGATC | -0.0623 ± 0.076
80 | CTCATCGC | 0.0527 ± 0.011
81 | AACCAGTA | -0.0469 ± 0.021
82 | CCTGTGCG | 0.0331 ± 0.0047
83 | CAACTTAA | 0.0896 ± 0.057
84 | CGATGTTA | -0.192 ± 0.016
85 | AGTAGAAA | -0.127 ± 0.0088
86 | CACTTACC | 0.284 ± 0.022
